Assay results reported in PubChem BioAssay AID488969 (Vanderbilt High Throughput Screening Facility, 2010).
Whole data set: some 110,000 compounds, median “z-score” near -0.1, cut for the highest 2% near 2. This is one part of the list. Activity calls are given as the source filed them.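 How the source made its calls: active means z-score in the third read window above 3 or below -3; inactive means the rest.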

These compounds were tested against Metabotropic glutamate receptor 8 (Rattus norvegicus) (UniProt P70579) (assay: mGluR8 Gi/Go-coupled signaling modulation – cell-based, rat, thallium flux, HTS, primary screen (AID 488969)). Details: HEK293 rat mGluR8, GIRK (G protein-gated inwardly rectifying potassium channel) thallium flux, FluoZin2; at 10 µM; stronger effect = higher value; submaximal glutamate (EC20) added with thallium.
Chain of UniProt P70579 (P70579 whole entry, looked up): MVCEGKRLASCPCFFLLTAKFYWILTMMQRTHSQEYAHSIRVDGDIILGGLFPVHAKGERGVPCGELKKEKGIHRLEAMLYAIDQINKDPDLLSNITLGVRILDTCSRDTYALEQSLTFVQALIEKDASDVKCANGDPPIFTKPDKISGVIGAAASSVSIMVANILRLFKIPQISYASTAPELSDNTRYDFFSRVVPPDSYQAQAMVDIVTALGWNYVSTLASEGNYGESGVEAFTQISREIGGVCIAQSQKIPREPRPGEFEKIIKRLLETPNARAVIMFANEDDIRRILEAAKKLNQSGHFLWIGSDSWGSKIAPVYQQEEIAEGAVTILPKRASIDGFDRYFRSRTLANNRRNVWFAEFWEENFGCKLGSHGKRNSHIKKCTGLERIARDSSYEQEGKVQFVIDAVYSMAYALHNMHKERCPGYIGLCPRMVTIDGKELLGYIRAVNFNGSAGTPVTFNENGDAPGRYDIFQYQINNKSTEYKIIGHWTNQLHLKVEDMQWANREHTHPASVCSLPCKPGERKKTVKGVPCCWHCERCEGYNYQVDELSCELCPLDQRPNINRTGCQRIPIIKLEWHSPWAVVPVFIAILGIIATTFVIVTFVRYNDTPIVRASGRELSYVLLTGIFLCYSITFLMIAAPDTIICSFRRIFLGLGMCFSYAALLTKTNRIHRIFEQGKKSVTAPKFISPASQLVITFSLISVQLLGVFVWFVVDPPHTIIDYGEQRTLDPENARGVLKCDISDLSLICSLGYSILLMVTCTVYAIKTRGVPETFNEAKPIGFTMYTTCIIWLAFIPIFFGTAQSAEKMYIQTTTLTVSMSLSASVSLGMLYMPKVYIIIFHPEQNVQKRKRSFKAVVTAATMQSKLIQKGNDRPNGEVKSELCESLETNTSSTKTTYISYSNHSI
For `CNc1cc(C)nc(-n2nc(C)cc2C)n1`, the z-score was -0.496. In the case of `Cc1cc(NC(=O)c2cc3n(n2)C(C(F)(F)F)CC(c2ccco2)N3)no1` (stereo not given), the z-score is reported as 0.191. `CCc1ccc(OCC(=O)Nc2ncc3c(n2)CC(C)(C)CC3=O)cc1` showed a z-score of -0.103. `CNC(=O)c1csc(-c2ccc(C)cc2)n1` gave a z-score of -0.0517. `O=C(c1cnn2c(C(F)(F)F)cc(-c3ccco3)nc12)N1CCc2ccccc2C1` showed a z-score of -1.04. Compound `Cc1noc(C)c1COC(=O)CCc1nc2ccccc2s1` has a z-score of 0.465. With `O=C(Nc1nc(=O)n(C(=O)C2CC2)s1)c1ccccc1` the z-score was -0.0174. Compound `O=C(c1ccccc1)c1ccc(C(=O)N2CCOCC2)cc1` has a z-score of -0.534. In the case of `O=C(Cn1cccc1C(=O)c1ccccc1)NCCCN1CCOCC1`, the z-score is reported as 0.641. Compound `Cn1ncc2c(NNC(=O)c3ccc(Cl)c(Cl)c3)ncnc21` has a z-score of 0.000366. `CCOC(=O)c1ccc(NC(=O)c2cnccn2)cc1` was tested, and the z-score was -0.223. In the case of `O=C(c1scc2c1CCCC2)N1CCOCC1`, the z-score is reported as 0.764. Work on `Oc1ccc(Nc2nc(-c3cccs3)cs2)cc1` yielded a z-score of 0.139. With `Cn1cc(S(=O)(=O)NCc2ccco2)c(=O)n(C)c1=O` the z-score was 0.0811. `O=S(=O)(/C=C/c1ccccc1)NCc1ccccc1Cl` was tested, and the z-score was 0.155. Work on `O=C(COc1ccccc1)Nc1ccccc1N1CCN(c2ccccc2)CC1` yielded a z-score of 0.46. With `CCc1cccc(CC)c1NC(=O)CSc1nc2ccc(N3C(=O)C4C5C=CC(C5)C4C3=O)cc2s1` (stereo not given) the z-score was -0.0336. In the case of `COc1ccc2cc(CN(Cc3ccco3)C(c3nnnn3C3CCCCC3)C(C)C)c(=O)[nH]c2c1` (stereo not given), the z-score is reported as 1.45. `Cc1cn(C2C=CC(CO)O2)c(=O)[nH]c1=O` (stereo not given) gave a z-score of 1.46. `CCOC(=O)c1cccc(NC(=O)Nc2cc(OC)ccc2OC)c1` showed a z-score of -1.93. Work on `CCc1cccc(NC(=O)c2ccc(Br)o2)c1` yielded a z-score of -0.575. With `O=C(COc1ccccc1)NC(=S)Nc1ccc2c3c(cccc13)CC2` the z-score was active: 4.29. In the case of `Fc1ccc(Cn2nnnc2C(c2ccc(Cl)cc2)N2CCSCC2)cc1` (stereo not given), the z-score is reported as 0.0411. Work on `CC1=NN(c2nc(-c3ccc(C)cc3)cs2)C(=O)C1N=Nc1cccc(C)c1` (stereo not given) yielded a z-score of -0.0444. `O=C(c1cnsn1)N1CCN(c2ccccc2)CC1` was tested, and the z-score was 0.79. `CCC(=O)Nc1ccc(C(=O)CSc2nc3ccccc3cc2CC)cc1` showed a z-score of -0.0164. `c1ccc(-c2nc(NCc3ccco3)c3oc4ccccc4c3n2)cc1` showed a z-score of -0.0363. Compound `CC(=O)Nc1cccc(-c2csc(Nc3ccc(C)cn3)n2)c1` has a z-score of -0.051. `O=C(Nc1ccc2nc(-c3ccco3)c(-c3ccco3)nc2c1)NC1CC1` gave a z-score of -0.968. `CCOC(=O)c1sc2nc3c(cc2c1N)COC(C)(CC)C3` (stereo not given) showed a z-score of 0.482. With `COc1cccc(-c2nc(-c3ccccn3)no2)c1OC` the z-score was 0.5. With `Cc1ccc(Cn2c(-c3nonc3N)nc3ccccc32)cc1` the z-score was -2.33. In the case of `COC(=O)C(O)(CC(=O)Nc1cc(Cl)ccc1Cl)C(F)(F)F` (stereo not given), the z-score is reported as -0.0611. `Cc1ccc(N(CC(O)Cn2c3ccccc3c3ccccc32)S(C)(=O)=O)cc1` (stereo not given) gave a z-score of 0.628. `COc1ccc(N(CC(=O)Nc2ccc(S(=O)(=O)N3CCOCC3)cc2)S(=O)(=O)c2ccccc2)cc1` was tested, and the z-score was -0.371. Compound `Cn1c(=O)oc2cc(S(=O)(=O)N3CCCC(C(=O)NCc4ccc5c(c4)OCO5)C3)ccc21` (stereo not given) has a z-score of 0.0687. For `CCN(CC)c1ccc(C2C3CCCCC3(O)CCN2CC(=O)Nc2ccccc2)cc1` (stereo not given), the z-score was 0.131. Work on `O=C(c1cccs1)N1CCN(S(=O)(=O)Cc2ccccc2)CC1` yielded a z-score of 0.263. `COc1ccccc1-c1nc(C#N)c(N2CCc3ccccc3C2)o1` gave a z-score of -1.32. Compound `N#C/C(=N\Nc1cccc(Cl)c1)C(=O)c1ccccc1` has a z-score of -0.892. Work on `COc1ccc(OC)c(/C=C/C(=O)OCC(=O)Nc2cccc(Oc3ccccc3)c2)c1` yielded a z-score of 0.125. For `Cc1onc(-c2c(F)cccc2Cl)c1C(=O)Nc1sc2c(c1C(N)=O)CCC2`, the z-score was -0.0663. With `O=C(Nc1cccc(S(=O)(=O)C(F)F)c1)c1ccc(S(=O)(=O)N2CCOCC2)cc1` the z-score was -0.42. In the case of `CCOC(=O)c1sc(NC(=O)CCN2CC(C)OC(C)C2)c(C(=O)OCC)c1C` (stereo not given), the z-score is reported as -0.533. `CC(=O)Nc1ccc(S(=O)(=O)NCC2CCC(C(=O)N3CCN(c4ccccn4)CC3)CC2)cc1` (stereo not given) showed a z-score of -1.85. `COc1ccc(OCC(=O)N/N=C/c2ccc(OC)c(OC)c2C(=O)O)cc1` gave a z-score of 0.0225. Work on `O=C(c1ccc([N+](=O)[O-])cc1)N(Cc1ccc(Cl)cc1Cl)N1C(=O)CCCC1=O` yielded a z-score of -0.157. Compound `CCCCOC(=O)Nc1nnc(CCOCC)s1` has a z-score of 0.454. With `COc1ccccc1/C=C/C(=O)NCC(=O)N/N=C/c1cccnc1` the z-score was 0.376. In the case of `CCC(C)c1ccc(OCC(=O)Nc2ccc(Cl)cn2)cc1` (stereo not given), the z-score is reported as -0.607. `On1c(-c2ccccc2)nc2ccc(Cl)cc21` was tested, and the z-score was -0.175. For `O=C(CCCCCn1c(=O)[nH]c2ccsc2c1=O)N1CCCCC1`, the z-score was 0.0114. `CCOc1ccc(-c2csc(/C(C#N)=C\c3ccc(O)c([N+](=O)[O-])c3)n2)cc1` showed a z-score of -0.0468. `COc1ccc(NC(=S)NC(NC(=O)c2cccc3ccccc23)C(Cl)(Cl)Cl)c([N+](=O)[O-])c1` (stereo not given) was tested, and the z-score was 0.288. `CCNc1nc(NCC)n2c(SCC(=O)N3CC4(C)CC3CC(C)(C)C4)nnc2n1` (stereo not given) gave a z-score of -0.372. `O=S(=O)(Nc1nc2ccc(S(=O)(=O)N3CCCC3)cc2s1)c1ccc(F)cc1` showed a z-score of -0.0332. `Cc1cc(S(=O)(=O)Nc2ccccc2C(=O)O)ccc1Cl` was tested, and the z-score was -0.498. With `O=C(CN1CCN(Cc2ccc3c(c2)OCO3)CC1)c1c[nH]c2ccccc12` the z-score was -0.0425. For `COc1ccc(-n2nc(C(=O)NCC(=O)N3CCN(c4ccccn4)CC3)c3ccccc3c2=O)cc1`, the z-score was 0.213. `CC(C)N=C(NC#N)SCc1ccccc1` gave a z-score of -0.319. `CC(/C=N\N1CCN(c2ccc(Cl)cc2)CC1)=C\c1ccccc1` showed a z-score of -0.0676. Work on `Nn1c(SCC(=O)NC2CCCC2)nnc1-c1ccccc1F` yielded a z-score of 0.166. With `COc1ccc(OC)c(CNn2c(-c3cccc(C)c3)nc3ccccc3c2=O)c1` the z-score was -0.693. For `CN=C(Nc1cc(C)nn1CCC#N)c1ccccc1F`, the z-score was 1.23. In the case of `CCC1(O)c2ccccc2-c2ncccc21` (stereo not given), the z-score is reported as 0.118. For `CC(C)Cn1c(CN(Cc2ccccc2)Cc2ccccc2)nc2c1c(=O)n(C)c(=O)n2C`, the z-score was 0.297. `CC(Sc1ccccc1)C(=O)Nc1cccc(N(C)S(C)(=O)=O)c1` (stereo not given) gave a z-score of 0.0381. Work on `O=C(O)C1CC(c2ccccc2)=NO1` (stereo not given) yielded a z-score of -0.378. Compound `Cc1ccccc1NC1=C/C(=N\S(=O)(=O)c2cccs2)c2ccccc2C1=O` has a z-score of -0.0328. For `Cc1cc(=O)[nH]c(SCCCOc2ccc(F)cc2)n1`, the z-score was -0.256.
